The source of these data is paper PMC4336329 (PLoS ONE, 2015).

Among all 310,000 compounds or so, about 14,000 (4.5%) showed an effect of 50% or more. Effects have a minus sign here. Some of the results follow.
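Further: peak tail current of the secondary pulse compared with the same well before compound.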

The target in this assay is human ether-à-go-go-related gene (hERG) potassium channel (human, UniProt Q12809). The experiment in a line: primary screen, population patch clamp on CHO cells stably expressing hERG.
Chain of human ether-à-go-go-related gene (hERG) potassium channel (Q12809 whole entry, looked up): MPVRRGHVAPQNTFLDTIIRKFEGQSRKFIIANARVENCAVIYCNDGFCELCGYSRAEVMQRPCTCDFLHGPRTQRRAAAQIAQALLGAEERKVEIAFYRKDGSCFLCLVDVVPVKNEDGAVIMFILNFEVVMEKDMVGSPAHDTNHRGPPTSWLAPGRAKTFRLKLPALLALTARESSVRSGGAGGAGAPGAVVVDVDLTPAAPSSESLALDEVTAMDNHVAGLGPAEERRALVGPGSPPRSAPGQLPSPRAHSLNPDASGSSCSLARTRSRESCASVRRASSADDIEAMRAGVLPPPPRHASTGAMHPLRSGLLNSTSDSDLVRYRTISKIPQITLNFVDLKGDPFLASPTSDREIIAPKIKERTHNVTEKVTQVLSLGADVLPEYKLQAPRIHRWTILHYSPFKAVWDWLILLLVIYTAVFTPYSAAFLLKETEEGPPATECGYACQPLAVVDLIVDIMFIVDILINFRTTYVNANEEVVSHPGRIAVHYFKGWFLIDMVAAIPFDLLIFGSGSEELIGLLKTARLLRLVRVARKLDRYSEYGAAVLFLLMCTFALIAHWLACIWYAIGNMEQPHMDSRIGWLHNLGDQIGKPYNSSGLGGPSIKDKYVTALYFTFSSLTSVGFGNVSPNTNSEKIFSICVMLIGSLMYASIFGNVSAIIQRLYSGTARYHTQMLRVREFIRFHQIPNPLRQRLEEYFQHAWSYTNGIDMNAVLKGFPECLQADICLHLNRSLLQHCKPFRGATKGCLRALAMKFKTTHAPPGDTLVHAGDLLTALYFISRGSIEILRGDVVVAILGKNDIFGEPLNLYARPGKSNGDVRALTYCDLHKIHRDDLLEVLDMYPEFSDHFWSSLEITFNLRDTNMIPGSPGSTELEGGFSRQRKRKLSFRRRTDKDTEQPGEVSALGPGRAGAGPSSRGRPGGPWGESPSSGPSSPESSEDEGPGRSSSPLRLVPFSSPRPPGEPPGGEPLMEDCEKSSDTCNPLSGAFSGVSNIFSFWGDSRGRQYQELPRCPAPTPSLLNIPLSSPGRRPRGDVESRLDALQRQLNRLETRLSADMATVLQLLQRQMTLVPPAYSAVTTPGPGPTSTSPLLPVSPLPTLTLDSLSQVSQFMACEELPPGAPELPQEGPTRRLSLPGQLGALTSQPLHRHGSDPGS
Regarding `N#Cc1ccc(Oc2ccc(S(=O)(=O)N3CCOCC3)cn2)cc1`, the “hERG current change (%, negative = inhibition) at 10uM” value is recorded as -45.4%.

In the case of `Cc1ccc(NC(=O)CCc2nc3sc4c(c3c(=O)[nH]2)CCCC4)c(Br)c1`, the “hERG current change (%, negative = inhibition) at 10uM” value was 9.62%.

As for `N#CC1=C(N)Oc2c(ccc3cccnc23)C1c1cccnc1` (stereo not drawn), the “hERG current change (%, negative = inhibition) at 10uM” value is -13.5%.

As to `COCCSc1ccccc1C(=O)Nc1ccc(S(=O)(=O)N2CCOCC2)cc1`, the “hERG current change (%, negative = inhibition) at 10uM” value is recorded as 0.228%.

For the compound `CCN(CC)C(=O)Cn1ccc(NC(C)=O)nc1=O`, the “hERG current change (%, negative = inhibition) at 10uM” value was found to be 5.18%.

`CCCCn1c(N)c(N(CC(C)C)C(=O)c2ccc(N3C(=O)CCC3=O)cc2)c(=O)[nH]c1=O`: the “hERG current change (%, negative = inhibition) at 10uM” value came out at 13.9%.

As for `Cc1cc(C)n(-c2nc(-c3ccc(Cl)cc3)cs2)n1`, the “hERG current change (%, negative = inhibition) at 10uM” value was 9.46%.

On to `O=S(=O)(Nc1ccccc1O)c1ccc(-c2ccccc2)cc1`, for which the “hERG current change (%, negative = inhibition) at 10uM” value turned out to be 60.2%.

For `Cc1ccc(NC2=NCC(=O)N2Cc2ccc3c(c2)OCO3)cc1`, the “hERG current change (%, negative = inhibition) at 10uM” value is listed as -5.93%.

On to `CCOc1ccc(-n2c(SCC(=O)N3CCC(C(=O)O)CC3)nc3ccccc3c2=O)cc1`, for which the “hERG current change (%, negative = inhibition) at 10uM” value is reported as 13.1%.

As for `CCCn1c(/C=C/c2cc[n+](C)cc2)nc2ccccc21.[I-]`, the “hERG current change (%, negative = inhibition) at 10uM” value was found to be 7.76%.

For the compound `CCOc1ccc(NS(=O)(=O)c2ccc(C(=O)NC3CCC(O)CC3)cc2)cc1` (stereo not drawn), the “hERG current change (%, negative = inhibition) at 10uM” value came out at 10.3%.

Take `C/C(=N/N1CCN(c2ccccn2)CC1)c1cccc([N+](=O)[O-])c1`: the “hERG current change (%, negative = inhibition) at 10uM” value is given as -11.9%.

Take `O=C(OCc1ccc(F)cc1Cl)c1ccccn1`: the “hERG current change (%, negative = inhibition) at 10uM” value was 6%.

For the compound `Cc1cccc(C(C)C)c1NC(=O)c1c(-c2ccccc2)noc1C`, the “hERG current change (%, negative = inhibition) at 10uM” value is 18.9%.

As for `CCOC(=O)c1c(C)nc(C(Cl)(Cl)Cl)nc1N`, the “hERG current change (%, negative = inhibition) at 10uM” value was -4.94%.

With `O=c1[nH]c(=S)n(C2CC2)c(O)c1C=NCC1CCCO1` (stereo not drawn), the “hERG current change (%, negative = inhibition) at 10uM” value is listed as -6.97%.

Take `CC(C)c1nc2cc(C(=O)N(C)C3CCOCC3)ccc2o1`: the “hERG current change (%, negative = inhibition) at 10uM” value is given as -1.17%.

Take `CC1CCN(C(c2ccc(N(C)C)cc2)c2nnnn2Cc2ccc(F)cc2)CC1` (stereo not drawn): the “hERG current change (%, negative = inhibition) at 10uM” value is given as 9.84%.

Take `c1ccc(N2CCN(c3ccccc3)C2c2cccs2)cc1`: the “hERG current change (%, negative = inhibition) at 10uM” value amounted to 3.61%.

Consider `CCn1nc(C(=O)N2CCc3ccccc32)c2ccccc2c1=O`, for which the “hERG current change (%, negative = inhibition) at 10uM” value was -19.7%.

Take `Cc1ccc(C)c(S(=O)(=O)NCCN2CCOCC2)c1.Cl`: the “hERG current change (%, negative = inhibition) at 10uM” value is 9.41%.

On to `c1ccc(-n2nnnc2Sc2n[nH]c(-c3ccncc3)n2)cc1`, for which the “hERG current change (%, negative = inhibition) at 10uM” value turned out to be 0.977%.

For the compound `CCCc1nc(S(=O)(=O)Cc2ccc(Cl)cc2Cl)n[nH]1`, the “hERG current change (%, negative = inhibition) at 10uM” value is 1.54%.

As to `CC(C)(CO)NC(=O)c1ccc2nc(Cc3cccc(Cl)c3)oc2c1`, the “hERG current change (%, negative = inhibition) at 10uM” value is given as -6.2%.

On to `CCOc1ccc(-n2c(SCC(=O)Nc3nccs3)nnc2-c2ccoc2C)cc1`, for which the “hERG current change (%, negative = inhibition) at 10uM” value was -56.1%.

For the compound `O=C(O)CCC(=O)N1CCN(c2nc(-c3ccccc3)c3cc(Br)ccc3n2)CC1`, the “hERG current change (%, negative = inhibition) at 10uM” value is 3.79%.

For the compound `CCCCCCCCn1sccc1=O`, the “hERG current change (%, negative = inhibition) at 10uM” value is listed as -33.8%.

In the case of `NC(=O)C1CCN(c2oc(/C=C/c3ccc(F)cc3)nc2S(=O)(=O)c2ccccc2)CC1`, the “hERG current change (%, negative = inhibition) at 10uM” value was determined as 5.52%.

As to `Cc1cccc(N2C(=O)CC(Sc3ccccc3C(=O)O)C2=O)c1` (stereo not drawn), the “hERG current change (%, negative = inhibition) at 10uM” value is 10.5%.

Consider `COCCC(=O)N1CCC(Oc2ccc(C(=O)N(C)C(C)c3ccon3)cc2)CC1` (stereo not drawn), for which the “hERG current change (%, negative = inhibition) at 10uM” value was found to be 13.1%.

As for `Cc1cc(C)c(S(=O)(=O)N2CCOC2CNC(=O)C(=O)NCCc2ccc(S(N)(=O)=O)cc2)c(C)c1` (stereo not drawn), the “hERG current change (%, negative = inhibition) at 10uM” value is given as -17.8%.

Take `COc1ccccc1CCNC1C2CC3CC(C2)CC1C3` (stereo not drawn): the “hERG current change (%, negative = inhibition) at 10uM” value is given as -32.6%.

For `CCc1ccc(C(=O)/C=C/Nc2ccc(S(=O)(=O)Nc3cnc4ccccc4n3)cc2)cc1`, the “hERG current change (%, negative = inhibition) at 10uM” value amounted to 17.5%.

For `Cl.O=C(Oc1cccnc1)c1ccco1`, the “hERG current change (%, negative = inhibition) at 10uM” value was 9.65%.

For the compound `CC(C)n1cnnc1SCC(=O)Nc1ccc(N2CCCCC2)cc1`, the “hERG current change (%, negative = inhibition) at 10uM” value is 8.88%.

As for `CCC(CC)Nc1ccc(C(CC(N)=O)NC(=O)Cc2ccc(Br)cc2)cc1[N+](=O)[O-]` (stereo not drawn), the “hERG current change (%, negative = inhibition) at 10uM” value amounted to 5.94%.

With `C=CCn1c(O)c(CN2CCOCC2)c(C)c(C#N)c1=O`, the “hERG current change (%, negative = inhibition) at 10uM” value is given as 12.7%.

`CCOc1ccc(N=C(/C(C(=O)C(=O)N2CCOCC2)=C(\O)c2ccccc2)c2ccccc2)cc1`: the “hERG current change (%, negative = inhibition) at 10uM” value stood at 27.7%.

In the case of `CCOC(=O)C1=C(C)N=C2SC(C)C(=O)N2C1c1ccc(C(=O)OC)cc1` (stereo not drawn), the “hERG current change (%, negative = inhibition) at 10uM” value is -12.6%.

On to `CCS(=O)(=O)N1CCCC(C(=O)NCC2CCCO2)C1` (stereo not drawn), for which the “hERG current change (%, negative = inhibition) at 10uM” value came out at 17.8%.

`O=C(NC(=S)NCCC1=CCCCC1)c1ccc(Br)o1`: the “hERG current change (%, negative = inhibition) at 10uM” value came out at 23.9%.

Take `O=C(O)c1ccc(NC(=O)c2cn(-c3ccccc3)nc2-c2cccc(Cl)c2)cc1`: the “hERG current change (%, negative = inhibition) at 10uM” value was 24.1%.

As to `C#CC1(NC(=O)NC(C)(C)C)CCCCC1`, the “hERG current change (%, negative = inhibition) at 10uM” value is 15.7%.

On to `COc1cccc(/C=C2\SC(=S)N(CCC(=O)N3CCCCC3)C2=O)c1`, for which the “hERG current change (%, negative = inhibition) at 10uM” value is 17.9%.

On to `COc1ccc(OC)c(N(CC(=O)NC2CCCCCC2)S(=O)(=O)c2ccc(C)cc2)c1`, for which the “hERG current change (%, negative = inhibition) at 10uM” value is given as -4.32%.

For the compound `CC(=NC1CCCCC1)C1=C(O)c2ccccc2C1=O`, the “hERG current change (%, negative = inhibition) at 10uM” value stood at 0.706%.

On to `COC(=O)C1CCN(C(=O)COc2cc3sc(C)nc3c3sccc23)CC1`, for which the “hERG current change (%, negative = inhibition) at 10uM” value is reported as -2.15%.

Turning to `CN(C(=O)CSc1nnnn1-c1ccccc1)C1CCS(=O)(=O)C1` (stereo not drawn), the “hERG current change (%, negative = inhibition) at 10uM” value amounted to 5.12%.

For the compound `O=C(O)CCN1c2ccccc2Sc2ccccc21`, the “hERG current change (%, negative = inhibition) at 10uM” value is 16.5%.

As for `CC(C)CC(COCc1ccc(C(F)(F)F)cc1)N1CCN(C(=O)c2ccc(C(F)(F)F)cc2)CCC1=O` (stereo not drawn), the “hERG current change (%, negative = inhibition) at 10uM” value is given as -16.7%.

In the case of `O=C(/C=C/c1ccco1)Nc1ccc2c(c1)OCO2`, the “hERG current change (%, negative = inhibition) at 10uM” value is listed as 6.67%.

For `Cn1c(=O)oc2cc(S(=O)(=O)N3CCN(c4ccccn4)CC3)ccc21`, the “hERG current change (%, negative = inhibition) at 10uM” value was 8.32%.

For `CC(=O)c1ccc(NC(=O)c2ccc3nc(C)sc3c2)cc1`, the “hERG current change (%, negative = inhibition) at 10uM” value was found to be 16.5%.

As to `CCOC(=O)N1CCN(C(=O)COC(=O)CN(C)S(=O)(=O)c2ccc(NC(C)=O)cc2)CC1`, the “hERG current change (%, negative = inhibition) at 10uM” value stood at 14.2%.

Turning to `O=C(CCn1[nH]c(=O)c2ccccc2c1=O)OC1CCCCC1`, the “hERG current change (%, negative = inhibition) at 10uM” value is recorded as 9.92%.

Consider `Cc1nc2c(C(=O)NCc3ccc4c(c3)OCO4)c[nH]n2c(=O)c1Cc1ccccc1F`, for which the “hERG current change (%, negative = inhibition) at 10uM” value is reported as -3.56%.
